Results published in PubChem BioAssay AID1468 (National Center for Advancing Translational Sciences (NCATS), 2008).
Out of some 280,000 compounds screened, about 1,100 (0.39%) were called active. Inconclusive results, whose numbers are uncertain, are shown with a selection of clear calls. Calls follow the shape of the dose curve; as a rule, active = well fitted inhibition curve with a large enough effect; inconclusive = small, poorly fitted or top-dose-only effect, or effect the other way; inactive = flat fitted curve, though single readings scatter. A potency beside an inconclusive call is a rough fit, not a confirmed value.

Target: Microtubule-associated protein tau (Homo sapiens) (UniProt P10636)
Experiment: qHTS for Inhibitors of Tau Fibril Formation, Fluorescence Polarization; also: nearly all actives have a fitted effect of over 55% in size
Conditions: K18 P301L tau heparin fibrillization, Alexa594 FP, 6 h; series mostly up to 57.7 µM; activity, negative = inhibition: at the top concentration
Method in brief: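 Quantitative HTS format: compounds meet 15 uM recombinant K18 P301L tau and Alexa 594-tau tracer in 100 mM sodium acetate pH 7; 20 uM heparin triggers fibrillization at 37 C over 6 hr; FP gives the signal.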
% is scaled to controls: 0 for no effect and ±100 for the full control effect; potency is read from the fitted curve at half-maximal effect; tags tell the direction and shape of the fitted curve.

UniProt P10636, sequence (P10636 whole entry, looked up): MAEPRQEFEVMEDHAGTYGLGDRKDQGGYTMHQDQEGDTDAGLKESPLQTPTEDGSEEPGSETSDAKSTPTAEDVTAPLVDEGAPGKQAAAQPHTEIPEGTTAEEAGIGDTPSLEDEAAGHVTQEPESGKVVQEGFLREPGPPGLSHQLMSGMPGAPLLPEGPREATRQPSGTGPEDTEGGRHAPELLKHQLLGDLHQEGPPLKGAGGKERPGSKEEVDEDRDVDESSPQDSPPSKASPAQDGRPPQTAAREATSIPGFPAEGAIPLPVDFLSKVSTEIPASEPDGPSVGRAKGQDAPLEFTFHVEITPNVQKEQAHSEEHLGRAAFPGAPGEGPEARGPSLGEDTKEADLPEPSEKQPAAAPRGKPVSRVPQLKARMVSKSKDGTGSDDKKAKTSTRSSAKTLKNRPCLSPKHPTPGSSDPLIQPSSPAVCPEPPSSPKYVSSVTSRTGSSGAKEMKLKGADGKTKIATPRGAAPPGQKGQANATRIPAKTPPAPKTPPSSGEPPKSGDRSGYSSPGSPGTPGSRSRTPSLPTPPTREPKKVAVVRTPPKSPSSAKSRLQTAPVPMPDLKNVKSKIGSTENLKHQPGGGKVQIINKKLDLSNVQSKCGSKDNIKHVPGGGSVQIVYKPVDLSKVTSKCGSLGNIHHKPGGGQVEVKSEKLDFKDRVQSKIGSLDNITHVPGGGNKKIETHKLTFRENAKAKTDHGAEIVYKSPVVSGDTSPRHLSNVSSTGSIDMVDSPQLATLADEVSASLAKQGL

Potency, inconclusive:
CC1(C)CC(=O)C(C(=O)C2CCN(S(=O)(=O)c3ccccc3)CC2)C(=O)C1 39.8 µM [inhibitor, single point]
COc1ccc(C(=O)NC2CCN(C(=S)Nc3cccc(C)c3C)CC2)cc1 14.1 µM [inhibitor, partial curve]
COc1ccc(-c2nc(C#N)c(NCc3ccc(F)cc3)o2)cc1OC 4.47 µM [activator, single point]
CCC(=O)Nc1nc(=S)ss1 35.5 µM [inhibitor, partial curve]
CNS(=O)(=O)c1cc(Br)ccc1S(=O)c1ccccc1C(=O)O (stereo not drawn) 39.8 µM [inhibitor, single point]
COc1ccc(NC(=O)C2=C(C)Nc3c(C(=O)Nc4ccc(C)cc4)cnn3C2c2cccc(Cl)c2)cc1 (stereo not drawn) 39.8 µM [inhibitor, single point]
O=C(Nc1nc(-c2ccc(Cl)s2)cs1)c1cccs1 28.2 µM [inhibitor, single point]
CC1CCCN(c2ccc(C(=O)OCC(=O)N3c4ccccc4Sc4ccccc43)cc2[N+](=O)[O-])C1 (stereo not drawn) 39.8 µM [inhibitor, single point]
COc1ccc(-c2onc(C)c2C)cc1S(=O)(=O)Nc1ccc(OC(F)(F)F)cc1 22.4 µM [inhibitor, partial curve]
COc1ccc(N(CC(=O)Nc2cccc(N(C)S(C)(=O)=O)c2)S(=O)(=O)c2ccccc2)cc1Cl 22.4 µM [inhibitor, single point]
O=S(=O)(c1ccc(Br)cc1)c1nc(-c2ccco2)oc1SCc1ccccc1F 15.8 µM [inhibitor, partial curve]
CCCOc1ccc(/C=C/C(=O)Nc2sc3c(c2C(=O)OCC)CCC(C)C3)cc1OC (stereo not drawn) 3.98 µM [inhibitor, single point]
O=C(NCCNC(=O)c1cc(OCC(F)(F)F)ccc1OCC(F)(F)F)Nc1ccc(Cl)cc1 35.5 µM [inhibitor, single point]
COc1ccc(NC(=O)Nc2ccncc2)c(OC)c1 15.8 µM [activator, partial curve]
COc1ccc(NC(=O)C2CCC(CNS(=O)(=O)c3csc(C(N)=O)c3)CC2)cc1 (stereo not drawn) 28.2 µM [inhibitor, single point]
C/C(N)=C(/C#N)C(=O)COC(=O)C1CCC(C(C)(C)C)CC1 (stereo not drawn) 22.4 µM [inhibitor, partial curve]
CCOC(=O)N1CCN(C(=O)c2ccc3c(=O)n(Cc4ccc(OC)cc4)c(=S)[nH]c3c2)CC1 3.16 µM [inhibitor, single point]
Cc1ccc(-c2ccc(=O)n(CC(=O)Nc3ccc(C(C)C)cc3)n2)cc1 31.6 µM [inhibitor, single point]
C=CCOc1ccc(C2c3c(oc4ccc(C)cc4c3=O)C(=O)N2CCCN2CCOCC2)cc1 (stereo not drawn) 7.94 µM [inhibitor, single point]
CCc1nn2cc(C(=O)c3cc(Cl)ccc3O)cnc2c1-c1ccc(F)cc1 10 µM [inhibitor, partial curve]
COc1cccc(NC(=O)CSc2nc3c([nH]c4ccccc43)c(=O)n2-c2cccc(Cl)c2)c1 31.6 µM [inhibitor, single point]
Cc1ccc(Cn2ccn(Cc3cccc(C(F)(F)F)c3)c(=O)c2=O)cc1 8.91 µM [inhibitor, single point]
CN(Cc1ccco1)c1cc(-c2ccccc2Cl)ncn1 39.8 µM [inhibitor, single point]
O=C(Nc1ccc(F)c(Cl)c1)C1Cc2ccccc2CN1S(=O)(=O)c1ccc(F)cc1 (stereo not drawn) 14.1 µM [inhibitor, partial curve, poor fit]
CC(C)(C)OC(=O)N1CC(O)CC1C(=O)OCC(=O)c1ccc(Cl)cc1 (stereo not drawn) 22.4 µM [inhibitor, single point]
Cn1nc(C(=O)Nc2cccc(S(N)(=O)=O)c2)c2ccccc2c1=O 31.6 µM [inhibitor, single point]
COc1cc(C(F)(F)F)nc2ccc(C#CCOC(=O)Nc3ccccc3)cc12 20 µM [inhibitor, partial curve]
COc1ccc(/C=C2\CCCC(C(=O)C(F)(F)F)=C2O)cc1OC 22.4 µM [inhibitor, single point]
CCOc1ccccc1NC(=O)c1cc2ccc3cccnc3c2[nH]1 25.1 µM [inhibitor, partial curve]
COc1ccc(Nc2ccccc2N)cc1 39.8 µM [activator, single point]
COc1ccccc1N(Cc1ccccc1)S(=O)(=O)c1cccc(C(=O)Nc2ccc(C(C)=O)cc2)c1 7.08 µM [inhibitor, full curve]
O=C1c2oc3ccccc3c(=O)c2C(c2cccc(O)c2)N1Cc1ccc(F)cc1 (stereo not drawn) 0.199 µM [inhibitor, full curve, poor fit]
CCn1c(COc2cccc(OC)c2)nnc1SCC(=O)Nc1cccc(OC)c1 0.141 µM [inhibitor, partial curve, poor fit]
Cc1ccccc1Nc1c(-c2ccccc2O)nc2sccn12 1.41 µM [activator, partial curve, poor fit]
CCc1cccc(NC(=O)c2sc3nc[nH]c(=O)c3c2C)c1 31.6 µM [inhibitor, single point]
CC(=O)c1ccc(NC(=S)N2CCN(C(=S)Nc3ccc(C(C)=O)cc3)C(C)C2)cc1 (stereo not drawn) 5.01 µM [inhibitor, partial curve]
O=C(Nc1ccc(Br)cc1)c1ccc(F)c(S(=O)(=O)N2CCN(c3ccccn3)CC2)c1 5.62 µM [inhibitor, partial curve]
Cc1ccc(C)c(NC(=S)NC(NC(=O)Cc2ccccc2)C(Cl)(Cl)Cl)c1 (stereo not drawn) 22.4 µM [inhibitor, single point]
COc1ccc(N=C2NC(=O)/C(=C\C=C\c3ccco3)S2)cc1 39.8 µM [inhibitor, single point]
COc1cccc(N(C(=O)Cn2nnc(-c3ccc(C)o3)n2)C(C(=O)NC(C)(C)C)c2cccs2)c1 (stereo not drawn) 25.1 µM [inhibitor, single point]
CCOC(=O)c1c(N)sn(-c2ccccc2C)c1=S 20 µM [inhibitor, single point]
O=C1NC(c2ccc(Br)cc2)Nc2sc3c(c21)CCC3 (stereo not drawn) 44.7 µM [inhibitor, single point]
CC(=O)c1ccc(NC(=O)CSCC(=O)Nc2ccc3ccccc3c2)cc1 31.6 µM [inhibitor, partial curve]
O=C(/C=C/c1c[nH]c2ccccc12)c1ccccc1 0.0631 µM [inhibitor, full curve, poor fit]

Potency, active:
O=[N+]([O-])c1ccc(N/N=C/c2ccc(O)c(O)c2O)c(S(=O)(=O)N2CCOCC2)c1 10 µM
CCOC(=O)/C=C(\C)Sc1cc(O)c2ccccc2c1O 4.47 µM

Potency, inactive:
COc1ccc(NC(=O)CC2Nc3cccc4cccc(c34)NC2=O)cc1 (stereo not drawn)

activity, negative = inhibition, inactive:
CC(=O)c1ccc(NC(=O)CSc2nc(C3CCCC3)nc3c2c(=O)n(C)c(=O)n3C)cc1 -0.573%
O=C(Nc1ccccc1C(F)(F)F)Nc1cccc2ccccc12 -3.08%
CN(Cc1ccccc1)C(=C(Cl)Cl)C(=C1NCCN1)[N+](=O)[O-] -10.7%
CC1CC1c1ccc(/C=C(\C#N)C(=O)Nc2ccccc2Cl)o1 (stereo not drawn) -9.27%
COc1ccc(CSc2nc(C)cc(C)c2C#N)cc1 -10.4%
CO/N=C1/[C@H]2O[C@@H]2[C@@H](O)[C@H]2[C@H]1CCn1c(=O)n(-c3ccccc3)c(=O)n12 2.93% [at 11.6 µM]
O=C(/C=C/c1c(F)cccc1Cl)c1ccc(O)cc1 -10.7%
CCCCn1c(SCC(=O)Nc2cccc(OC)c2)nc2ccsc2c1=O -14.2%
COCCNC(=S)NNc1ccccc1[N+](=O)[O-] 0.421%
CCOC(=O)Nc1c(Cl)n(C)c(=O)n(C)c1=O 1.7%
COc1ccccc1NC(=O)c1c(C)cc(C)nc1SCC(=O)Nc1cccc(C)c1 -2.74%
CCC1(C)Cc2c(sc3[nH]c(=O)[nH]c(=O)c23)CS1 (stereo not drawn) -14%
COC(=O)c1ccc2c(c1)N(C)S(=O)(=O)c1cnc(SCC(=O)C(C)(C)C)nc1-2 -16.3%
COc1ccc(N(Cc2cccs2)C(=O)COc2ccc([N+](=O)[O-])cc2)cc1 3.42%
COCCCNC(=O)N1CCN(c2nnc(C)c3c(C)n(-c4ccc(Cl)cc4)nc23)CC1 0.553%
COc1ccc(-c2ccc(-c3cc(=O)oc4cc(C)cc(C)c34)cc2)cc1 -6.68% [at 81.3 µM]
COc1ccc(C(=O)NCC(c2cccnc2)N2CCN(c3ccccc3F)CC2)cc1OC (stereo not drawn) -0.931%
CN(C)S(=O)(=O)n1ccnc1 3.48%
COc1ccccc1-c1noc(-c2ccc(NC3CCCC3)c([N+](=O)[O-])c2)n1 -6%
Cc1cc2nc(-c3ccc(NC(=O)c4ccccc4F)cc3)oc2cc1C -10.7%
C=C(C)CNC(=S)Nc1nc2c(cc1C(=O)OCC)CCCC2 -1%
